# This is one part of the list.
# Legend:
# Assay in all cases: glycan array binding signal (z-score within array); higher = stronger binding
# Details in all cases: glycan notation: IUPAC condensed, linker removed
# Gal(a1-2)Gal = target: Gal(a1-2)Gal
# How it was run: (§1)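 The binding signal is a Z-score computed within each array and averaged over linkers. Arrays of the same protein sequence at different concentrations or buffers were also averaged together. Data originate from 3228 arrays in the Consortium for Functional Glycomics database, kept only where the protein sequence was available.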
# Gal(a1-3)Gal = target: Gal(a1-3)Gal
# How it was run: as §1
# Gal(a1-3)Gal(b1-3)GlcNAc = target: Gal(a1-3)Gal(b1-3)GlcNAc
# How it was run: as §1
# Gal(a1-3)Gal(b1-4)Glc = target: Gal(a1-3)Gal(b1-4)Glc
# How it was run: as §1
# Gal(a1-3)Gal(b1-4)GlcNAc = target: Gal(a1-3)Gal(b1-4)GlcNAc
# How it was run: as §1
# [1] = target: Gal(a1-3)Gal(b1-4)[Fuc(a1-3)]GlcNAc
# How it was run: as §1
# [2] = target: Gal(a1-3)Gal(b1-4)[Fuc(a1-3)]GlcNAc(b1-2)Man(a1-3)[Gal(a1-3)Gal(b1-4)[Fuc(a1-3)]GlcNAc(b1-2)Man(a1-6)]Man(b1-4)GlcNAc(b1-4)GlcNAc
# How it was run: as §1
# Gal(a1-3)GalNAc = target: Gal(a1-3)GalNAc
# How it was run: as §1
# [3] = target: Gal(a1-3)[Gal(a1-4)]Gal(b1-4)GlcNAc
# How it was run: as §1
# Gal(a1-4)Gal(b1-4)Glc = target: Gal(a1-4)Gal(b1-4)Glc
# How it was run: as §1
# Gal(a1-4)Gal(b1-4)GlcNAc = target: Gal(a1-4)Gal(b1-4)GlcNAc
# How it was run: as §1
# [4] = target: Gal(a1-4)Gal(b1-4)GlcNAc(b1-3)Gal(b1-4)Glc
# How it was run: as §1
# Gal(a1-4)GlcNAc = target: Gal(a1-4)GlcNAc
# How it was run: as §1
# Gal(a1-6)Glc = target: Gal(a1-6)Glc
# How it was run: as §1
# Gal(b1-2)Gal = target: Gal(b1-2)Gal
# How it was run: as §1
# Gal(b1-3)Gal = target: Gal(b1-3)Gal
# How it was run: as §1
# Gal(b1-3)Gal(b1-4)GlcNAc = target: Gal(b1-3)Gal(b1-4)GlcNAc
# How it was run: as §1
# [5] = target: Gal(b1-3)Gal(b1-4)GlcNAc(b1-2)Man(a1-3)[Gal(b1-3)Gal(b1-4)GlcNAc(b1-2)Man(a1-6)]Man(b1-4)GlcNAc(b1-4)GlcNAc
# How it was run: as §1
# Gal(b1-3)GalNAc = target: Gal(b1-3)GalNAc
# How it was run: as §1
# [6] = target: Gal(b1-3)GalNAc(a1-3)[Fuc(a1-2)]Gal(b1-4)Glc
# How it was run: as §1
# [7] = target: Gal(b1-3)GalNAc(a1-3)[Fuc(a1-2)]Gal(b1-4)GlcNAc
# How it was run: as §1
# [8] = target: Gal(b1-3)GalNAc(b1-3)Gal(a1-4)Gal(b1-4)Glc
# How it was run: as §1
# [9] = target: Gal(b1-3)GalNAc(b1-4)Gal(b1-4)Glc
# How it was run: as §1
# [10] = target: Gal(b1-3)GalNAc(b1-4)[Neu5Ac(a2-3)]Gal(b1-4)Glc
# How it was run: as §1
# Gal(b1-3)GlcNAc = target: Gal(b1-3)GlcNAc
# How it was run: as §1
# [11] = target: Gal(b1-3)GlcNAc(b1-2)Man(a1-3)[Gal(b1-3)GlcNAc(b1-2)Man(a1-6)]Man(b1-4)GlcNAc(b1-4)GlcNAc
# How it was run: as §1
# [12] = target: Gal(b1-3)GlcNAc(b1-2)Man(a1-3)[Gal(b1-3)GlcNAc(b1-2)Man(a1-6)]Man(b1-4)GlcNAc(b1-4)[Fuc(a1-6)]GlcNAc
# How it was run: as §1
# [13] = target: Gal(b1-3)GlcNAc(b1-3)Gal(b1-3)GlcNAc
# How it was run: as §1
# [14] = target: Gal(b1-3)GlcNAc(b1-3)Gal(b1-4)Glc
# How it was run: as §1
# [15] = target: Gal(b1-3)GlcNAc(b1-3)Gal(b1-4)GlcNAc
# How it was run: as §1
# [16] = target: Gal(b1-3)[Fuc(a1-4)]GlcNAc
# How it was run: as §1
# [17] = target: Gal(b1-3)[Fuc(a1-4)]GlcNAc(b1-2)Man(a1-3)[Gal(b1-3)[Fuc(a1-4)]GlcNAc(b1-2)Man(a1-6)]Man(b1-4)GlcNAc(b1-4)GlcNAc
# How it was run: as §1
# [18] = target: Gal(b1-3)[Fuc(a1-4)]GlcNAc(b1-2)Man(a1-3)[Gal(b1-3)[Fuc(a1-4)]GlcNAc(b1-2)Man(a1-6)]Man(b1-4)GlcNAc(b1-4)[Fuc(a1-6)]GlcNAc
# How it was run: as §1
# [19] = target: Gal(b1-3)[Fuc(a1-4)]GlcNAc(b1-3)Gal(b1-3)[Fuc(a1-4)]GlcNAc
# How it was run: as §1
# [20] = target: Gal(b1-3)[Fuc(a1-4)]GlcNAc(b1-3)Gal(b1-4)GlcNAc
# How it was run: as §1
# [21] = target: Gal(b1-3)[Fuc(a1-4)]GlcNAc(b1-3)Gal(b1-4)[Fuc(a1-3)]GlcNAc
# How it was run: as §1
# [22] = target: Gal(b1-3)[GlcNAc(b1-6)]GalNAc
# How it was run: as §1
# [23] = target: Gal(b1-3)[Neu5Ac(a2-6)]GalNAc
# How it was run: as §1
# [24] = target: Gal(b1-3)[Neu5Ac(a2-6)]GlcNAc(b1-6)Gal(b1-4)Glc
# How it was run: as §1
# [25] = target: Gal(b1-3)[Neu5Ac(b2-6)]GalNAc
# How it was run: as §1
# [26] = target: Gal(b1-4)GalNAc(a1-3)[Fuc(a1-2)]Gal(b1-4)GlcNAc
# How it was run: as §1
# [27] = target: Gal(b1-4)GalNAc(b1-3)[Fuc(a1-2)]Gal(b1-4)GlcNAc
# How it was run: as §1
# Gal(b1-4)Glc = target: Gal(b1-4)Glc
# How it was run: as §1
# Gal(b1-4)Glc6S = target: Gal(b1-4)Glc6S
# How it was run: as §1
# Gal(b1-4)GlcNAc = target: Gal(b1-4)GlcNAc
# How it was run: as §1
# [28] = target: Gal(b1-4)GlcNAc(a1-6)Gal(b1-4)GlcNAc
# How it was run: as §1
# [29] = target: Gal(b1-4)GlcNAc(b1-2)Man(a1-3)Man(b1-4)GlcNAc(b1-4)GlcNAc
# How it was run: as §1
# [30] = target: Gal(b1-4)GlcNAc(b1-2)Man(a1-3)[Gal(b1-4)GlcNAc(b1-2)Man(a1-6)]Man(b1-4)GlcNAc(b1-4)GlcNAc
# How it was run: as §1
# [31] = target: Gal(b1-4)GlcNAc(b1-2)Man(a1-3)[Gal(b1-4)GlcNAc(b1-2)Man(a1-6)]Man(b1-4)GlcNAc(b1-4)[Fuc(a1-6)]GlcNAc
# How it was run: as §1
# [32] = target: Gal(b1-4)GlcNAc(b1-2)Man(a1-3)[Man(a1-6)]Man(b1-4)GlcNAc(b1-4)GlcNAc
# How it was run: as §1
# [33] = target: Gal(b1-4)GlcNAc(b1-2)Man(a1-6)Man(b1-4)GlcNAc(b1-4)GlcNAc
# How it was run: as §1
# [34] = target: Gal(b1-4)GlcNAc(b1-2)Man(a1-6)[Man(a1-3)]Man(b1-4)GlcNAc(b1-4)GlcNAc
# How it was run: as §1
# [35] = target: Gal(b1-4)GlcNAc(b1-2)[Gal(b1-4)GlcNAc(b1-4)]Man(a1-3)[Gal(b1-4)GlcNAc(b1-2)Man(a1-6)]Man(b1-4)GlcNAc(b1-4)GlcNAc
# How it was run: as §1
# [36] = target: Gal(b1-4)GlcNAc(b1-3)Gal(b1-3)GlcNAc
# How it was run: as §1
# [37] = target: Gal(b1-4)GlcNAc(b1-3)Gal(b1-4)Glc
# How it was run: as §1
# [38] = target: Gal(b1-4)GlcNAc(b1-3)Gal(b1-4)GlcNAc
# How it was run: as §1
# [39] = target: Gal(b1-4)GlcNAc(b1-3)Gal(b1-4)GlcNAc(b1-3)Gal(b1-4)GlcNAc
# How it was run: as §1
# [40] = target: Gal(b1-4)GlcNAc(b1-3)Gal(b1-4)[Fuc(a1-3)]GlcNAc(b1-3)Gal(b1-4)[Fuc(a1-3)]GlcNAc
# How it was run: as §1
# [41] = target: Gal(b1-4)GlcNAc(b1-3)GalNAc
# How it was run: as §1
# [42] = target: Gal(b1-4)GlcNAc(b1-3)[Gal(b1-4)GlcNAc(b1-6)]Gal(b1-4)GlcNAc
# How it was run: as §1
binder,measurement,setting,value
"DGL (Dioclea grandiflora), P08902 (protein) ADTIVAVELDSYPNTDIGDPNYPHIGIDIKSIRSKSTARWNMQTGKVGTVHISYNSVAKRLSAVVSYSGSSSTTVSYDVDLNNVLPEWVRVGLSATTGLYKETNTILSWSFTSKLKTNSIADENSLHFSFHKFSQNPKDLILQGDAFTDSDGNLELTKVSSSGDPQGNSVGRALFYAPVHIWESSAVVASFDATFTFLIKSPDREPADGITFFIANTDTSIPSGSGGRLLGLFPDAN",glycan array binding signal (z-score),Gal(a1-2)Gal,-0.184
same,glycan array binding signal (z-score),Gal(a1-3)Gal,-0.18
same,glycan array binding signal (z-score),Gal(a1-3)Gal(b1-3)GlcNAc,-0.171
same,glycan array binding signal (z-score),Gal(a1-3)Gal(b1-4)Glc,-0.181
same,glycan array binding signal (z-score),Gal(a1-3)Gal(b1-4)GlcNAc,-0.182
same,glycan array binding signal (z-score),[1],-0.176
same,glycan array binding signal (z-score),[2],-0.175
same,glycan array binding signal (z-score),Gal(a1-3)GalNAc,-0.173
same,glycan array binding signal (z-score),[3],-0.176
same,glycan array binding signal (z-score),Gal(a1-4)Gal(b1-4)Glc,-0.164
same,glycan array binding signal (z-score),Gal(a1-4)Gal(b1-4)GlcNAc,-0.174
same,glycan array binding signal (z-score),[4],-0.163
same,glycan array binding signal (z-score),Gal(a1-4)GlcNAc,-0.178
same,glycan array binding signal (z-score),Gal(a1-6)Glc,-0.182
same,glycan array binding signal (z-score),Gal(b1-2)Gal,-0.176
same,glycan array binding signal (z-score),Gal(b1-3)Gal,-0.186
same,glycan array binding signal (z-score),Gal(b1-3)Gal(b1-4)GlcNAc,-0.181
same,glycan array binding signal (z-score),[5],-0.172
same,glycan array binding signal (z-score),Gal(b1-3)GalNAc,-0.17
same,glycan array binding signal (z-score),[6],-0.165
same,glycan array binding signal (z-score),[7],-0.176
same,glycan array binding signal (z-score),[8],-0.177
same,glycan array binding signal (z-score),[9],-0.178
same,glycan array binding signal (z-score),[10],-0.184
same,glycan array binding signal (z-score),Gal(b1-3)GlcNAc,-0.172
same,glycan array binding signal (z-score),[11],-0.164
same,glycan array binding signal (z-score),[12],-0.009
same,glycan array binding signal (z-score),[13],-0.176
same,glycan array binding signal (z-score),[14],-0.18
same,glycan array binding signal (z-score),[15],-0.18
same,glycan array binding signal (z-score),[16],-0.18
same,glycan array binding signal (z-score),[17],-0.077
same,glycan array binding signal (z-score),[18],-0.147
same,glycan array binding signal (z-score),[19],-0.171
same,glycan array binding signal (z-score),[20],-0.18
same,glycan array binding signal (z-score),[21],-0.175
same,glycan array binding signal (z-score),[22],-0.18
same,glycan array binding signal (z-score),[23],-0.176
same,glycan array binding signal (z-score),[24],-0.172
same,glycan array binding signal (z-score),[25],-0.172
same,glycan array binding signal (z-score),[26],-0.172
same,glycan array binding signal (z-score),[27],-0.178
same,glycan array binding signal (z-score),Gal(b1-4)Glc,-0.179
same,glycan array binding signal (z-score),Gal(b1-4)Glc6S,-0.176
same,glycan array binding signal (z-score),Gal(b1-4)GlcNAc,-0.177
same,glycan array binding signal (z-score),[28],-0.178
same,glycan array binding signal (z-score),[29],-0.177
same,glycan array binding signal (z-score),[30],-0.174
same,glycan array binding signal (z-score),[31],-0.175
same,glycan array binding signal (z-score),[32],-0.151
same,glycan array binding signal (z-score),[33],-0.177
same,glycan array binding signal (z-score),[34],-0.028
same,glycan array binding signal (z-score),[35],-0.161
same,glycan array binding signal (z-score),[36],-0.177
same,glycan array binding signal (z-score),[37],-0.17
same,glycan array binding signal (z-score),[38],-0.18
same,glycan array binding signal (z-score),[39],-0.178
same,glycan array binding signal (z-score),[40],-0.174
same,glycan array binding signal (z-score),[41],-0.177
same,glycan array binding signal (z-score),[42],-0.178

# Source: the supplement of paper PMC8728848
